Whole data set: some 110,000 compounds, median “z-score” near -0.1, cut for the highest 2% near 2. The list shows a part of the results. Calls of active or inactive are those of the source.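 Rule for the calls: active = z-score in the third read window above 3 or below -3; inactive = the rest.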

In the assay the target is Metabotropic glutamate receptor 8 (Rattus norvegicus) (UniProt P70579). Put plainly: rat mGluR8 modulators via GIRK flux, primary screen, cell-based, thallium flux, HTS (AID 488969). The following applies: HEK293 rat mGluR8, GIRK (G protein-gated inwardly rectifying potassium channel) thallium flux, FluoZin2; at 10 µM; stronger effect = higher value; submaximal glutamate (EC20) added with thallium.
UniProt P70579, sequence (P70579 whole entry, looked up): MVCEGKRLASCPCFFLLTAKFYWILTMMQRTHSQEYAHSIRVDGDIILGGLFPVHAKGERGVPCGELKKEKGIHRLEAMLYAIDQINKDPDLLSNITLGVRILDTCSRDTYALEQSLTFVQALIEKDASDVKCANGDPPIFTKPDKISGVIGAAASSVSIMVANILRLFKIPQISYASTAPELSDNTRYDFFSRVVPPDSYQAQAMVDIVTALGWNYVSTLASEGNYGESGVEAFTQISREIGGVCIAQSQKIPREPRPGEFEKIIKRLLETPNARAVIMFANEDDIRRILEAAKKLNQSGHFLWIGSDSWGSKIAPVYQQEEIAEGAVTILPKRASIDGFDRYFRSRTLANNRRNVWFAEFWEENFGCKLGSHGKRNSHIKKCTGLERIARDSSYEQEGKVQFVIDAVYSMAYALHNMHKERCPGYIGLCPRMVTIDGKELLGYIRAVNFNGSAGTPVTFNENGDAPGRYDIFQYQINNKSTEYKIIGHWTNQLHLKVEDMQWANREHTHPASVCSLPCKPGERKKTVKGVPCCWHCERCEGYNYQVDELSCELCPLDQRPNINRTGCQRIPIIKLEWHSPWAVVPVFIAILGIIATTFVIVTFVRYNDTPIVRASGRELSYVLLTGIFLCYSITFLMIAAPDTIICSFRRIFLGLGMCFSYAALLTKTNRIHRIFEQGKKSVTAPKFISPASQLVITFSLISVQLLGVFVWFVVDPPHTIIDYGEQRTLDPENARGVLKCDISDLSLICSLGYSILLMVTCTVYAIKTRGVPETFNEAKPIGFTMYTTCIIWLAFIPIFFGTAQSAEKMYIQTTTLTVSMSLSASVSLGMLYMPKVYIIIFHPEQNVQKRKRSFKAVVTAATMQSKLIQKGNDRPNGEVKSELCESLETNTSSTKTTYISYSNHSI
The molecule `COc1cccc(C(=O)CSc2nnc(-c3cccs3)o2)c1` displayed a z-score of -0.28. The result for `COc1ccc(OC)c(C(=O)COC(=O)CNC(=O)c2ccccc2)c1` reads -0.486. The same measure for `CCC(C)Sc1nc(O)cc(=O)[nH]1` (configuration not stated): 0.0633; for `CC12CC3CC(C)(C1)CC(C(=O)NC(=S)N1CCCCC1)(C3)C2`: active: 8.62. Molecule `CCN(CC)C(=O)CSc1nsc(SCC(=O)N(CC)CC)c1C#N` yielded a z-score of 0.00897. In turn, `CCN1CCN(CC(=O)Nc2c(C(=O)OC)[nH]c3cccc(Cl)c23)CC1` gave a z-score of 0.0978. Regarding `Clc1ccc(SCc2cn3cccnc3n2)cc1`, the z-score was -0.175. `COc1nc(C#N)c(N2CCOCC2)o1` came in with a z-score of -0.118. The result for `COc1ccc(/C(N)=N/OC(=O)c2ccc3c(c2)OCO3)cc1OC` reads -0.294. `O=C(NCc1ccco1)C(c1ccncc1)N(CCC1=CCCCC1)C(=O)Cn1nnc2ccccc21` (configuration not stated) had a z-score of -0.0711. `O=C1c2ccccc2NC(c2cnc3ccccc3n2)N1O` (configuration not stated): the z-score is -0.216. `CCOC(=O)C(=O)Nc1nc(-c2ccccc2)c(CC)s1`: the z-score is -1.37.

Molecule `COc1ccc(-c2cc(C(F)(F)F)nc(SCCC(=O)N3CCCC3)n2)cc1` came in with a z-score of 0.386. Regarding `O=C(CSc1ncn[nH]1)NCCC(c1ccccc1)c1ccccc1`, the z-score was -0.443.

In turn, `Cc1ccc(S(C)(=O)=O)cc1S(=O)(=O)Nc1ccccc1` had a z-score of -0.0942. `CCN(CC)S(=O)(=O)c1ccc(N2C(=O)Nc3ccccc3N2O)cc1` had a z-score of -0.0358. The same measure for `Cc1ccc(-n2c(Cc3cccn3C)nnc2SCC(=O)NC2CCCCC2)cc1`: 0.061; for `CCOC(=O)c1cc2c(nc1N)CC(C)(C)OC2`: -0.353; for `Cc1c(/C=N\NC(=O)C2COc3ccccc3O2)c2ccccc2n1C` (configuration not stated): -0.12. The result for `CCC(=O)Nc1ccc(SC#N)cc1C` reads 0.137.

`Cc1cccc(OCC(=O)N2CCN(C(=O)c3cccs3)CC2)c1`: the z-score is -0.8. As to `O=C(Oc1ccc(-c2nnco2)cc1)N1CCOCC1`, the z-score worked out at 0.766.

`CCOc1ccc(C(=O)Nc2ccc(NC(=O)c3cccs3)cc2)cc1[N+](=O)[O-]` showed a z-score of -0.129. Take `CCN(CC)c1ccc(-n2c(O)c(C=C3N=c4ccccc4=N3)sc2=S)cc1`: the z-score was -0.392. As to `Cc1ccccc1NCc1ccccc1O`, the z-score was -0.623. Regarding `CC1CCN(CCCNC(=O)C2CCN(S(=O)(=O)N3CCCCC3)CC2)CC1`, the z-score was 0.641.

`COc1cc(/C=C/C(=O)OCC(=O)N2CCc3ccccc3C2)ccc1O` yielded a z-score of -0.652. `CC(C)C(=O)N(Nc1nc2ccccc2s1)C(=O)C(C)C`: the z-score was determined as 0.308. The result for `CCN(CC)C(=O)CCC(=O)Nc1ccc(C(=O)OC)cc1` reads 0.225; that for `O=C(/C=C/c1ccccc1)NC(=S)NNC(=O)c1cccnc1`, 0.417. The result for `O=C(O)C1CC(=O)N(c2ccc(F)c(F)c2)C1` (configuration not stated) reads 0.0874; that for `CCCCCCn1c(SCC(=O)c2c(N)n(C)c(=O)n(C)c2=O)nc2ccccc21`, -0.182. Take `CCc1nnc(NC(=O)NC(C)(C)C)s1`: the z-score was -0.201.

With `CCOC(=O)c1ccc(N2C(=O)C=CC2=O)cc1`, the z-score is 0.192. On to `Nc1nc(Cl)cc(N2CCOCC2)n1`, for which the z-score was -0.137.

`COc1ccc(CCC(=O)Nc2ccc(-c3noc(-c4ccc(OC)c(OC)c4)n3)cc2)cc1` had a z-score of -0.342.

For `COCCNC(=O)C1CCC(=O)N(c2ccc(OC)cc2)C1c1ccc(OC)c(OC)c1` (configuration not stated), the z-score turned out to be 0.711. `Cc1c(NC2=NC3(CCCCC3)Cc3ccccc32)c(=O)n(C)n1-c1ccccc1` showed a z-score of -0.223. `COc1ccc(N2CC(C(=O)Nc3nnc(SCC(=O)c4ccccc4)s3)CC2=O)cc1` (configuration not stated) came in with a z-score of -0.344. `O=C(O)CSc1nnc(-c2ccccc2O)n1Cc1ccccc1` yielded a z-score of 0.037. Take `CC(=O)c1cccc(NC(=S)NC(=O)CC(C)(C)C)c1`: the z-score was -0.0212.

Molecule `O=C1OCCC1Sc1nnnn1-c1ccccc1` (configuration not stated) returned a z-score of -0.169. `S=C1NC2=C(CCC/C2=C\c2ccccc2)C(c2ccccc2)N1` (configuration not stated) came in with a z-score of 0.864. `CCOC(=O)C(NC(=O)c1ccccc1)(OCC1(CC)COC1)C(F)(F)F` (configuration not stated) came in with a z-score of -0.096.

In turn, `N#Cc1cc2ccccc2nc1SCc1ccccn1` displayed a z-score of -1.05. As to `COc1ccc(CCc2nc(-c3ccc(-n4cccc4)cc3)no2)cc1`, the z-score was -0.0163. `Cc1noc(NS(=O)(=O)c2ccc(NC(=O)CSc3nnc4c(n3)[nH]c3ccccc34)cc2)c1C` gave a z-score of -0.015.

Molecule `O=C(CCCN1C(=O)CCC1=O)Nc1ccccc1F` came in with a z-score of -0.0546.

`C=CCNC(=S)Nc1ccc2nsnc2c1`: the z-score amounted to 0.113. The result for `CC1=C(C(=O)Nc2ccccc2)C(c2ccccn2)n2ncnc2N1` (configuration not stated) reads -0.125; that for `CC(=O)Nc1ccc(OCC(O)CN2CCN(c3ccccc3Cl)CC2)cc1` (configuration not stated), 0.528; that for `O=C(Oc1cccc(N2C(=O)CCC2=O)c1)C1CC(=O)N(c2ccc(Br)cc2)C1` (configuration not stated), -2.3. `O/N=C/c1ccccc1OCc1ccc(Cl)cc1` returned a z-score of -0.391.

The molecule `Cc1cccc(OCc2nnc(SCc3nc4ccccc4c(=O)[nH]3)o2)c1` registered a z-score of 0.369. Molecule `O=C(NC1CCCCC1)C(c1cccnc1)N(C(=O)c1csnn1)C1CCCC1` (configuration not stated) displayed a z-score of -0.0934. `COc1cccc(CN(CC(=O)NCC2CCCO2)C(=O)CNS(=O)(=O)c2ccccc2)c1` (configuration not stated) showed a z-score of -0.0821. As for `O=C(c1cc2nc(-c3ccco3)cc(C(F)(F)F)n2n1)N1CCN(c2ccccc2)CC1`, the z-score is -1. The molecule `COc1ccccc1NC(=O)N1CCCC1C(=O)NCc1ccc2c(c1)OCO2` (configuration not stated) displayed a z-score of -0.885. `O=C1NC(=NCc2ccccc2)S/C1=C\c1ccccc1` showed a z-score of -0.21. As to `CCOC(=O)c1ccc(NC(=O)Cn2cc3c(n2)CCC(C)C3)cc1` (configuration not stated), the z-score was -0.0526. In the case of `COc1ccc(CNC(=O)CN(Cc2ccc(C)cc2)S(=O)(=O)c2ccc(Cl)cc2)cc1`, the z-score was 0.0059. Turning to `CCC(C)NS(=O)(=O)c1ccc(OCC(=O)NCc2ccc3c(c2)OCO3)cc1` (configuration not stated), the z-score is -0.682. For `COc1ccc(OC)c(NC(=O)CS(=O)(=O)Cc2nc(-c3ccccc3C)oc2C)c1`, the z-score is -0.0629. As for `Cc1ccccc1CN1C2=NCCCN2c2ccccc21`, the z-score is active: 3.26. `Cc1ccc(-n2c(C)n[nH]c2=S)cc1C` came in with a z-score of -0.141. Molecule `CCOc1ccccc1OCCOCCOc1ccccc1[N+](=O)[O-]` displayed a z-score of -0.0536. In turn, `O=[N+]([O-])c1ccc(C(=Nc2cccc3ccccc23)N2CCOCC2)cc1` registered a z-score of -0.302.

In turn, `O=C(O)c1ccccc1C(=O)NCc1ccccc1` registered a z-score of 0.421. For the molecule `O=C(CCC(=O)Nc1cccc2ccccc12)N/N=C/c1ccco1`, the z-score was -0.266.

The molecule `CC1(C)CC(CC(=O)O)(c2ccc(F)cc2)CCO1` (configuration not stated) came in with a z-score of 1.92. In turn, `CC(NC(=O)CSc1ncccn1)c1ccccc1` (configuration not stated) displayed a z-score of -0.931. The same measure for `CCOc1ccccc1C(=O)Nc1ccc(-c2nnc(-c3ccc(C)cc3)o2)cc1`: 1.79; for `O=C(COC(=O)CNS(=O)(=O)c1ccc2ccccc2c1)Nc1ccccc1Sc1ccccc1`: 0.0539; for `COc1cccc(CNCCNC(=O)c2nonc2N)c1`: -0.554. `Nc1c(-c2ccccc2)c(CN2CCOCC2)nn1-c1ccc(F)cc1` gave a z-score of 0.285. Consider `Cc1cccc(NC(=S)N/N=C2\CC(C)(C)Oc3ccc(O)cc32)c1`, for which the z-score turned out to be 0.0264. On to `Cc1ccc(NC(=O)C2C(c3ccccc3)C2(Cl)Cl)c(C)c1` (configuration not stated), for which the z-score is -0.22. For the molecule `O=C(COc1ccc(Br)cc1CO)Nc1ccc(F)cc1`, the z-score was -0.382.

`Cc1cccc(N2CCN(S(=O)(=O)c3ccc4[nH]c(=O)c(=O)[nH]c4c3)CC2C)c1` (configuration not stated) yielded a z-score of 0.353.

In turn, `Cc1ccc(N2CCN(/N=C/c3sccc3C)CC2)cc1` registered a z-score of -0.0713.

The molecule `Nc1c(C(=O)NCc2ccccc2)c2nc3ccccc3nc2n1-c1ccc2c(c1)OCO2` gave a z-score of -0.118. In turn, `O=C(N/N=C/c1cn(-c2cccs2)nc1-c1ccccc1)c1ccccc1O` returned a z-score of 1.09. With `C=C(C(=O)c1ccccc1)C(c1ccccc1)C(C)C(=O)c1ccccc1` (configuration not stated), the z-score is -0.212. `Cc1noc(C)c1CSc1ccc(Br)cc1` came in with a z-score of 0.0287. With `Cc1ccc(OCC(=O)Nc2ccc(F)cc2)cc1`, the z-score is -0.224. The result for `Cc1ccc(SCc2nc(-c3cccnc3)no2)cc1` reads -0.199; that for `CN(C)CCNC(=O)Cc1c(C(=O)O)n(C)c2ccccc12`, 0.0614. In turn, `COc1ccc(-c2cc(C(F)(F)F)c3c(=O)n(-c4ccccc4)[nH]c3n2)cc1` returned a z-score of -0.0603. In turn, `CCOCC(=O)NCc1ccc2c(c1)OCO2` showed a z-score of -0.437. `Cc1cc(NC(=O)CSc2nc(-c3ccco3)cc(C(F)(F)F)n2)n(-c2ccccc2)n1`: the z-score is -0.0747. With `O=S(=O)(c1ccccc1)n1ccc2cccnc21`, the z-score was 0.511. `O=C(Cn1nnc(-c2ccc3c(c2)OCO3)n1)N1CCOCC1` showed a z-score of 0.266. Take `CCc1cccc(C)c1NC(=O)C1CN(S(=O)(=O)c2ccccc2)CCN1S(=O)(=O)c1ccccc1` (configuration not stated): the z-score is -0.0323.

The molecule `O=C(Nc1ccc(-c2nc3cc(Cl)ccc3c(=O)o2)cc1)c1ccco1` yielded a z-score of -0.405. Take `COc1ccc(C2NCCn3cccc32)cc1` (configuration not stated): the z-score was -0.113. Take `C=CCOC(=O)C1=C(C)NC(SCC)=C(C#N)C1c1ccc(Cl)cc1` (configuration not stated): the z-score came to 0.285. `COC(=O)NCCOc1nc(N(C)C)nc(N(C)C)n1` had a z-score of -0.0905. The result for `COc1ccc(Cl)cc1NC(=O)N(C)Cc1c(C)nn(C)c1C` reads -0.146.

As for `COc1ccccc1-n1c(SCC(=O)Nc2ccccc2F)nc2[nH]ncc2c1=O`, the z-score was -0.434.

Take `O=C(Nc1ccc(Br)c2cccnc12)c1ccc(Cn2cc([N+](=O)[O-])cn2)o1`: the z-score is -0.294. The result for `CC(C)(C)c1ccc(-c2nnc3sc(-c4ccncc4)nn23)cc1` reads 0.522; that for `O=S(=O)(c1ccc(-c2csc(-c3cccnc3)n2)cc1)N1CCCCC1`, 0.0664; that for `CCOC(=O)c1c(C)[nH]c(C)c1C(=O)COC(=O)c1cc2ccccc2cc1OC`, -0.256.

In turn, `Cc1ccccc1C(C(=O)NCc1ccccc1)N(Cc1ccco1)C(=O)c1ccccn1` (configuration not stated) registered a z-score of -0.305.

Regarding `Cc1cccc(-[n+]2c(C)cc(C)c3c(=O)[nH]c(=O)[nH]c32)c1`, the z-score was -0.392. On to `COc1ccc(-c2cccc(C(=O)NCC(=O)O)c2)cc1`, for which the z-score came out at 0.504. Regarding `N#Cc1cccc(NC(=O)c2ccccc2C(=O)O)c1`, the z-score was -0.112.

`O=C(CSc1nnc(SCc2ccccc2Cl)s1)N/N=C/c1c[nH]c2ccccc12` gave a z-score of -0.0227. The result for `COc1ccc(Cl)cc1N1C(=O)C2CCCN2C1c1cccc(F)c1` (configuration not stated) reads -1; that for `CC1CCCN(C(=O)c2ccc(S(=O)(=O)N3CCC(c4nc5ccccc5s4)CC3)cc2)C1` (configuration not stated), -0.412.

`CCN1C/C(=C\c2cccc(C)c2)c2nc3ccccc3c(C(=O)O)c2C1`: the z-score was determined as 0.00601. Regarding `Cc1ccc(NC(=O)CSCC(N)=O)cc1C`, the z-score is 0.0691.

The values are drawn from PubChem BioAssay AID488969 (Vanderbilt High Throughput Screening Facility, 2010).
